# Results reported in the supplement of paper PMC8728848.
# The list shows a part of the results.
# B1: Epa1-NP-mutant-Y228A (Candida glabrata), Q6VBJ0 (protein)
# chain: MILNPALFLNKCVCIYTTLILLLLTNGGYATSSNDISLASKDPTTFPLGCSPDITTPKKGLSMELYSYDFRKKGSYPCWDAAYLDPNYPRTGYKSHRLLAKVDGVTGNINFYYHATKGCTPQLGHLPASYNYPKPLTMTNFTMLLYGYFRPKVTGFHTFTISADDLLFVNFGAGNAFDCCRRDSSADHFGNYQAYAIWGSKTAKDELTVHLDAGVYYPIRLFYNNREADGALSFTFKTESNENTVSDFSEYFFSLDDTEEGCPGLISYDSSCASVKTSKIIGIDYHTETPNENLVPITKTIYHLGIPCTGTTTTPLCGSGFYDPLANKCVTINTSSTSSVTKTTSHTTSKEVSFHSSISSQKTLIPKSIPSPYGPIKSQSIPTEMETSSEISSSEYAFSDVISTPSHSPYTKKHSSLNSSSYTSTVIHSLTSYSISQGIFSTSLSEQNITSKSSTDKFSTATSMSNNITQSSIIISQFSTNNENYTTTSMHTSSDKISTETLNNSISTTTSILFSNSSTILKNNTTIISSDKDTHYHPVNPTIVCSTNKTEIICASITQPSISNSNNHWSSSVLKFNSTTVRSTLPSSAGSNETSINVPFSSSTESNTSTSSTSTSNSKMVRSTLPSSAGSNETSISVPFSSSTESNTSTSSTSTSNSKMVRSTLPSSAGSNETSINVPFSSSTESNTSTSSTSTSNSKTVRSTPFSSAGIIMTSLSQRNNKSASSYASSNSKCYNTADSCRKVHSTPSYLLTSSYTSEGVDYDCSLVSTKLKINDTNCVNNKHTTKSCLKTSVTTTIPTLEIKTARKSSSNTIGLHSYPTSSPNKSISSAPIIGYISSFKTIKTASPSYQTSDLTTITTITSLNNPGSTAVENTHESNDKSRKTSSNDISSKHSVIKETKDAVESSNKSHQTNTLKCSSIIIASSSHNSYESLGGTTLTLTLSKVYSPQNNDTLPFLEISEVNPSRTVLPESSKMMQYLTSTEERNKTARNTIATNIVSISTFHFEGEGNAIRMGYTQLLLMLIGIIVMNIGT
# Tests used:
# Test in all cases: glycan array binding signal (z-score within array); higher = stronger binding
# Conditions in all cases: glycan notation: IUPAC condensed, linker removed; mutation: Y228A
# [1] = target: Gal(b1-4)GalNAc(b1-3)[Fuc(a1-2)]Gal(b1-4)GlcNAc
# Outline: (§1)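 The binding signal is a Z-score computed within each array. Data were drawn from 3228 arrays in the Consortium for Functional Glycomics database, restricted to those with a known protein sequence. Scores were averaged over arrays of the same protein sequence at different concentrations or buffers, and over linkers, and negative values can be taken as non-binding.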
# Gal(b1-4)Glc = target: Gal(b1-4)Glc
# Outline: as §1
# Gal(b1-4)Glc6S = target: Gal(b1-4)Glc6S
# Outline: as §1
# Gal(b1-4)GlcNAc = target: Gal(b1-4)GlcNAc
# Outline: as §1
# [2] = target: Gal(b1-4)GlcNAc(a1-6)Gal(b1-4)GlcNAc
# Outline: as §1
# Gal(b1-4)GlcNAc(b1-2)Man = target: Gal(b1-4)GlcNAc(b1-2)Man
# Outline: as §1
# [3] = target: Gal(b1-4)GlcNAc(b1-2)Man(a1-3)Man(b1-4)GlcNAc(b1-4)GlcNAc
# Outline: as §1
# [4] = target: Gal(b1-4)GlcNAc(b1-2)Man(a1-3)[Gal(b1-4)GlcNAc(b1-2)Man(a1-6)]Man(b1-4)GlcNAc(b1-4)GlcNAc
# Outline: as §1
# [5] = target: Gal(b1-4)GlcNAc(b1-2)Man(a1-3)[Gal(b1-4)GlcNAc(b1-2)Man(a1-6)]Man(b1-4)GlcNAc(b1-4)[Fuc(a1-6)]GlcNAc
# Outline: as §1
# [6] = target: Gal(b1-4)GlcNAc(b1-2)Man(a1-3)[Gal(b1-4)GlcNAc(b1-2)Man(a1-6)][Gal(b1-4)GlcNAc(b1-4)]Man(b1-4)GlcNAc(b1-4)[Fuc(a1-6)]GlcNAc
# Outline: as §1
# [7] = target: Gal(b1-4)GlcNAc(b1-2)Man(a1-3)[Gal(b1-4)GlcNAc(b1-2)Man(a1-6)][GlcNAc(b1-4)]Man(b1-4)GlcNAc(b1-4)[Fuc(a1-6)]GlcNAc
# Outline: as §1
# [8] = target: Gal(b1-4)GlcNAc(b1-2)Man(a1-3)[GlcNAc(b1-2)Man(a1-6)]Man(b1-4)GlcNAc(b1-4)GlcNAc
# Outline: as §1
# [9] = target: Gal(b1-4)GlcNAc(b1-2)Man(a1-3)[GlcNAc(b1-4)][Gal(b1-4)GlcNAc(b1-2)Man(a1-6)]Man(b1-4)GlcNAc(b1-4)GlcNAc
# Outline: as §1
# [10] = target: Gal(b1-4)GlcNAc(b1-2)Man(a1-3)[Man(a1-6)]Man(b1-4)GlcNAc(b1-4)GlcNAc
# Outline: as §1
# [11] = target: Gal(b1-4)GlcNAc(b1-2)Man(a1-6)Man(b1-4)GlcNAc(b1-4)GlcNAc
# Outline: as §1
# [12] = target: Gal(b1-4)GlcNAc(b1-2)Man(a1-6)[GlcNAc(b1-2)Man(a1-3)]Man(b1-4)GlcNAc(b1-4)GlcNAc
# Outline: as §1
# [13] = target: Gal(b1-4)GlcNAc(b1-2)Man(a1-6)[Man(a1-3)]Man(b1-4)GlcNAc(b1-4)GlcNAc
# Outline: as §1
# [14] = target: Gal(b1-4)GlcNAc(b1-2)[Gal(b1-4)GlcNAc(b1-4)]Man(a1-3)[Gal(b1-4)GlcNAc(b1-2)Man(a1-6)]Man(b1-4)GlcNAc(b1-4)GlcNAc
# Outline: as §1
# [15] = target: Gal(b1-4)GlcNAc(b1-2)[Gal(b1-4)GlcNAc(b1-4)]Man(a1-3)[Gal(b1-4)GlcNAc(b1-2)[Gal(b1-4)GlcNAc(b1-6)]Man(a1-6)]Man(b1-4)GlcNAc(b1-4)GlcNAc
# Outline: as §1
# [16] = target: Gal(b1-4)GlcNAc(b1-2)[Gal(b1-4)GlcNAc(b1-4)]Man(a1-3)[GlcNAc(b1-4)][Gal(b1-4)GlcNAc(b1-2)Man(a1-6)]Man(b1-4)GlcNAc(b1-4)GlcNAc
# Outline: as §1
# [17] = target: Gal(b1-4)GlcNAc(b1-2)[Gal(b1-4)GlcNAc(b1-4)]Man(a1-3)[GlcNAc(b1-4)][Gal(b1-4)GlcNAc(b1-2)[Gal(b1-4)GlcNAc(b1-6)]Man(a1-6)]Man(b1-4)GlcNAc(b1-4)GlcNAc
# Outline: as §1
# [18] = target: Gal(b1-4)GlcNAc(b1-2)[Gal(b1-4)GlcNAc(b1-6)]Man(a1-6)[Gal(b1-4)GlcNAc(b1-2)Man(a1-3)]Man(b1-4)GlcNAc(b1-4)GlcNAc
# Outline: as §1
# [19] = target: Gal(b1-4)GlcNAc(b1-2)[Gal(b1-4)GlcNAc(b1-6)]Man(a1-6)[Gal(b1-4)GlcNAc(b1-2)Man(a1-3)]Man(b1-4)GlcNAc(b1-4)[Fuc(a1-6)]GlcNAc
# Outline: as §1
# [20] = target: Gal(b1-4)GlcNAc(b1-2)[Gal(b1-4)GlcNAc(b1-6)]Man(a1-6)[GlcNAc(b1-4)][Gal(b1-4)GlcNAc(b1-2)Man(a1-3)]Man(b1-4)GlcNAc(b1-4)GlcNAc
# Outline: as §1
# [21] = target: Gal(b1-4)GlcNAc(b1-2)[Gal(b1-4)GlcNAc(b1-6)]Man(a1-6)[GlcNAc(b1-4)][Gal(b1-4)GlcNAc(b1-2)[Gal(b1-4)GlcNAc(b1-4)]Man(a1-3)]Man(b1-4)GlcNAc(b1-4)[Fuc(a1-6)]GlcNAc
# Outline: as §1
# [22] = target: Gal(b1-4)GlcNAc(b1-3)Gal(b1-3)GalNAc
# Outline: as §1
# [23] = target: Gal(b1-4)GlcNAc(b1-3)Gal(b1-3)GlcNAc
# Outline: as §1
# [24] = target: Gal(b1-4)GlcNAc(b1-3)Gal(b1-4)Glc
# Outline: as §1
# [25] = target: Gal(b1-4)GlcNAc(b1-3)Gal(b1-4)GlcNAc
# Outline: as §1
# [26] = target: Gal(b1-4)GlcNAc(b1-3)Gal(b1-4)GlcNAc(b1-2)Man(a1-3)[Gal(b1-4)GlcNAc(b1-3)Gal(b1-4)GlcNAc(b1-2)Man(a1-6)]Man(b1-4)GlcNAc(b1-4)GlcNAc
# Outline: as §1
binder,measurement,setting,value
B1,glycan array binding signal (z-score),[1],-0.146
same,glycan array binding signal (z-score),Gal(b1-4)Glc,0.267
same,glycan array binding signal (z-score),Gal(b1-4)Glc6S,2.93
same,glycan array binding signal (z-score),Gal(b1-4)GlcNAc,0.003
same,glycan array binding signal (z-score),[2],0.654
same,glycan array binding signal (z-score),Gal(b1-4)GlcNAc(b1-2)Man,-0.138
same,glycan array binding signal (z-score),[3],-0.23
same,glycan array binding signal (z-score),[4],-0.259
same,glycan array binding signal (z-score),[5],-0.248
same,glycan array binding signal (z-score),[6],-0.062
same,glycan array binding signal (z-score),[7],-0.176
same,glycan array binding signal (z-score),[8],-0.254
same,glycan array binding signal (z-score),[9],-0.279
same,glycan array binding signal (z-score),[10],-0.242
same,glycan array binding signal (z-score),[11],-0.173
same,glycan array binding signal (z-score),[12],-0.252
same,glycan array binding signal (z-score),[13],-0.227
same,glycan array binding signal (z-score),[14],0.397
same,glycan array binding signal (z-score),[15],0.67
same,glycan array binding signal (z-score),[16],-0.248
same,glycan array binding signal (z-score),[17],0.836
same,glycan array binding signal (z-score),[18],1.2
same,glycan array binding signal (z-score),[19],1.58
same,glycan array binding signal (z-score),[20],-0.223
same,glycan array binding signal (z-score),[21],0.803
same,glycan array binding signal (z-score),[22],-0.276
same,glycan array binding signal (z-score),[23],-0.136
same,glycan array binding signal (z-score),[24],-0.179
same,glycan array binding signal (z-score),[25],-0.202
same,glycan array binding signal (z-score),[26],0.007
